Our source for the cell viability values is the supplement of paper PMC8512760.

Assay in all cases: cell viability relative to vehicle (% of vehicle); basal-like triple-negative breast cancer lines; higher = less cytotoxic
What all share (conditions): 10 µM; 72 h

For assay [1], the system named is HCC-1143.
Assay [2] relates to HCC-1187.
The test system of assay [3] is MDA-468.
The test system of assay [4] is SUM-149.

This is one part of the list. Many values rest on one well or one pass, so single values are uncertain.
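Note: stably firefly luciferase-GFP labeled cells in 96-well plates, viability read as luciferase photon flux after d-luciferin addition, treated wells normalized to vehicle wells, single-dose high-throughput screen.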

`COc1ccc2cccc(CCNC(C)=O)c2c1` [Agomelatine]: the cell viability in assay [1] was found to be 73.4; in assay [2] it was 90.5; in assay [3], 115; in assay [4], 98.5.
Taken in the same sequence, the figures for `Cc1ccc(C2OC(CO)C(O)C(O)C2O)cc1Cc1ccc(-c2ccc(F)cc2)s1` (stereo not given) [Canagliflozin] were 79.5, 95.1, 84 and 91.5.
The corresponding values for `Br.Cc1ccc(Sc2ccccc2N2CCNCC2)c(C)c1` are 103, 19.6, 35.7 and 26.9.
Turning to `Cc1nc2c([nH]1)CCN(C(=O)c1ccc(NC(=O)c3ccccc3-c3ccccc3)cc1)c1ccccc1-2.Cl` [Conivaptan HCl], the cell viability in assay [1] worked out at 93.2; in assay [2] it was 96.7; in assay [3], 96.7; in assay [4], 92.5.
On to `NS(=O)(=O)NCC/N=C1\NON\C1=C(\N=O)Nc1ccc(F)c(Br)c1`, for which the cell viability in assay [1] amounted to 126; in assay [2], 105; in assay [3], 127; in assay [4], 125.
As to `CN1CCN(CCOc2cc(OC3CCOCC3)c3c(Nc4c(Cl)ccc5c4OCO5)ncnc3c2)CC1` [Saracatinib (AZD0530)], the cell viability came out at 87.7 in assay [1], 108 in assay [2], 95.6 in assay [3] and 37.6 in assay [4].
Consider `Cl.Nc1ncnc2nc[nH]c12` [Adenine HCl], for which the cell viability in assay [1] was 123; in assay [2], 95; in assay [3], 117; in assay [4], 128.
Taken in the same sequence, the figures for `CN1C(C(=O)Nc2ccccn2)=C(O)c2sccc2S1(=O)=O` [Tenoxicam] were 81.7, 95.4, 109 and 116.
Taken in the same sequence, the figures for `CC(C)NCC(O)COc1ccc(COCCOC(C)C)cc1.O=C(O)C=CC(=O)O` (stereo not given) [Bisoprolol fumarate] were 79, 102, 102 and 109.
The corresponding values for `CNS(=O)(=O)Cc1ccc2[nH]cc(CCN(C)C)c2c1.O=C(O)CCC(=O)O` [Sumatriptan Succinate] are 71.7, 100, 108 and 88.5.
